Measured values published in PubChem BioAssay AID686979 (National Center for Advancing Translational Sciences (NCATS), 2013).
The campaign covered roughly 420,000 compounds. About 50,000 (12%) were called active. The shares of active, inactive and inconclusive entries below differ from those in the screen. Calls come from the whole dose curve; as a rule, active = well fitted inhibition curve with a large enough effect; inconclusive = small, poorly fitted or top-dose-only effect; inactive = flat fitted curve, though single readings scatter. No potency is given beside an inconclusive call; the fits are too rough.

Test: qHTS for Inhibitors of human tyrosyl-DNA phosphodiesterase 1 (TDP1): qHTS in cells in presence of CPT; note: nearly all actives have a fitted effect of over 55% in size
Details: chicken DT40 Tdp1-/-;hTDP1 cells + 20 nM CPT, ATP luminescence, 48 h; series mostly up to 46.2 µM
How it was run: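 Cell growth measured by CellTiter-Glo luminescence after a minimum 48 h, 37 C compound exposure with 20 nM CPT in Tdp1-knockout DT40 cells stably expressing hTDP1, seeded 400/well; qHTS titration format.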
Potency is the fitted concentration of half-maximal effect; tags give direction and shape of the fitted curve.

With `Cc1nnc(SCC(=O)NCc2ccccc2F)c2nn(-c3ccc(Cl)cc3)c(C)c12` as the molecule, how does the Potency read?
The Potency was active: 13 µM.

Which Potency does the source give for `COc1ccc(-c2nc(CSCC(=O)N3CCC(C(N)=O)CC3)c(C)o2)cc1OC` here?
Its Potency is “inactive”.

Which Potency does the source give for `COc1cccc(CN(C)C(=O)c2cc(S(=O)(=O)NC3CCCCC3)ccc2C)c1OC` here?
Its Potency is inconclusive [inhibitor, partial curve].

With `CN1CC(=O)N(CC(=O)Nc2ccc(Cl)c(C(F)(F)F)c2)c2ccccc2C1=O` as the molecule, how does the Potency read?
Its Potency is inconclusive [inhibitor, single point].

For `COc1ccccc1N1CCN(C(c2ccccc2)c2nnnn2Cc2ccccc2)CC1` (centres undefined), which Potency is on record?
The Potency was active: 14.1 µM.

Which Potency does the source give for `Cc1ccc(-c2nc(SCc3ccc(Br)cc3)n3[nH]c(=O)cc3n2)cc1` here?
Its Potency is inconclusive [inhibitor, single point].

With `Cc1cccc2cc(CN(CCCO)C(=O)Nc3ccc(Cl)cc3)c(=O)[nH]c12` as the molecule, how does the Potency read?
The Potency was inconclusive [inhibitor, single point].

With `Nc1cc(N)nc(SCC(=O)NC2CCCCCCC2)n1` as the molecule, how does the Potency read?
The Potency was “inactive”.

Which Potency does the source give for `COc1ccccc1NC(=O)CCc1nnc2ccc(N3CCN(C)CC3)nn12` here?
The Potency was “inactive”.

For `O=C(N/N=C/c1ccc[nH]1)c1ccccc1OCc1ccccc1Cl`, which Potency is on record?
Its Potency is inconclusive [inhibitor, single point].

With `Cc1ccc(S(=O)(=O)c2nc(-c3ccc(Cl)cc3)oc2N2CCCCCC2)cc1` as the molecule, how does the Potency read?
The Potency was inconclusive [inhibitor, single point].

With `COc1ccc(CNc2ncnc3c2c(-c2ccccc2)cn3-c2ccccc2)cc1` as the molecule, how does the Potency read?
Its Potency is inconclusive [inhibitor, single point].

Which Potency does the source give for `CC(C)(C)OC(=O)N1CCC(Cc2cc(-c3cccnc3)no2)(C(=O)O)CC1` here?
Its Potency is “inactive”.

For `COc1ccc(CN2CCC(=O)N([C@H](CO)Cc3ccccc3)CC2)cc1OC`, which Potency is on record?
The Potency was inconclusive [inhibitor, single point].

For `CN=C1SC(CC(=O)Nc2ccccc2F)C(=O)N1/N=C/c1ccc(O)c(OC)c1` (centres undefined), which Potency is on record?
The Potency was active: 23.1 µM.

With `O=C(Cc1cccs1)N1CCN(S(=O)(=O)c2cc(Cl)ccc2Cl)CC1` as the molecule, how does the Potency read?
The Potency was “inactive”.

Which Potency does the source give for `COc1cc(NC(=O)[C@@H](NC(=O)N2CCn3c2nc2ccccc23)C(C)C)cc(OC)c1` here?
The Potency was inconclusive [inhibitor, single point].

Which Potency does the source give for `COC(=O)c1ccc2nc(-c3cccc(Cl)c3)c(Cc3cccc(F)c3)n2c1` here?
The Potency was active: 16.4 µM.

With `COc1ccccc1CNC(=O)c1cccc(Nc2nc3ccccc3n3nnnc23)c1` as the molecule, how does the Potency read?
The Potency was inconclusive [inhibitor, partial curve].
